Among all 310,000 compounds or so, about 14,000 (4.5%) showed an effect of 50% or more. Effects have a minus sign here. The list shows a part of the results.
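Further: peak tail current of the secondary pulse compared with the same well before compound.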

The target in this assay is human ether-à-go-go-related gene (hERG) potassium channel (human, UniProt Q12809). Description: primary screen, population patch clamp on CHO cells stably expressing hERG.
human ether-à-go-go-related gene (hERG) potassium channel, sequence (Q12809 whole entry, looked up): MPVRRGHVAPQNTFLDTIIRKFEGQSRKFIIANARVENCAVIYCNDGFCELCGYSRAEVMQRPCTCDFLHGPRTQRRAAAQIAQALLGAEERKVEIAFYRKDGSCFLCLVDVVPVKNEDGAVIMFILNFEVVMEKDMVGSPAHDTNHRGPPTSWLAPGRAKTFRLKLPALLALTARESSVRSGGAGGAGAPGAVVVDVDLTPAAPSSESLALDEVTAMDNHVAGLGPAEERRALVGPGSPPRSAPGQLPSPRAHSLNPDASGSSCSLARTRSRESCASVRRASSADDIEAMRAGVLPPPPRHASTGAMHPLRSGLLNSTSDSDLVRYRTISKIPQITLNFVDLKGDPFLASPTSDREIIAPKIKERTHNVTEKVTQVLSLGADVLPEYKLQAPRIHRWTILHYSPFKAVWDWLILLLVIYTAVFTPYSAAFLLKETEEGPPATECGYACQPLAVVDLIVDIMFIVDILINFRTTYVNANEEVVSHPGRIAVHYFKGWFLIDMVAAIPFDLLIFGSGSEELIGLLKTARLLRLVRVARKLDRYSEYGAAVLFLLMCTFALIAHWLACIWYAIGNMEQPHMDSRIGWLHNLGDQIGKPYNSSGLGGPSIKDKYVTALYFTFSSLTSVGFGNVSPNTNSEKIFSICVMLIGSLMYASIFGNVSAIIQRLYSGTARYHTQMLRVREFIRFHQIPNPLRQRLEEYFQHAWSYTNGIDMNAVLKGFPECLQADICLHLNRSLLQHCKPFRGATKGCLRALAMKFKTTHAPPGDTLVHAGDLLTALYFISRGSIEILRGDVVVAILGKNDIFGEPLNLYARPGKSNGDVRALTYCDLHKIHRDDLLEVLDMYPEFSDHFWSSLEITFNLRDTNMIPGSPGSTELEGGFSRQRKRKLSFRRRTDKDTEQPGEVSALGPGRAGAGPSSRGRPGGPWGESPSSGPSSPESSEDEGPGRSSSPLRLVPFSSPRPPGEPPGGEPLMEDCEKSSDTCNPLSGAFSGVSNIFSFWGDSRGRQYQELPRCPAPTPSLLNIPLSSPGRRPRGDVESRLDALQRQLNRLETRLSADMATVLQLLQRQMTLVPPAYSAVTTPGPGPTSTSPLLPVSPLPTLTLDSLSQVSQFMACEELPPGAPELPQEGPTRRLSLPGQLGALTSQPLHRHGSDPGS
Regarding `CCN(c1ccccc1)S(=O)(=O)c1nnc(NC(=O)c2ccccc2OC)s1`, the “hERG current change (%, negative = inhibition) at 10uM” value is -0.472%. Take `CC(C)Oc1cccc(C(=O)C2CCCN(Cc3ccc(Oc4ncccn4)cc3)C2)c1` (stereo not shown): the “hERG current change (%, negative = inhibition) at 10uM” value is given as -62.6%. For `C/C(Cn1nnc([N+](=O)[O-])n1)=N\NC(=O)c1cccc(Cl)c1`, the “hERG current change (%, negative = inhibition) at 10uM” value is listed as -11.7%.

As to `CC(C)c1ccc(N(CC(=O)NC(C)(C)C)C(=O)CCC(=O)Nc2nccs2)cc1`, the “hERG current change (%, negative = inhibition) at 10uM” value stood at 2.7%. On to `COc1ccc(C(=O)NC(=S)NCc2ccccc2)cc1`, for which the “hERG current change (%, negative = inhibition) at 10uM” value is reported as -0.211%. To `COc1ccc(C2CC(=O)C(C=NCCN3CCN(C(=S)Nc4ccccc4)CC3)=C(O)C2)cc1OC` (stereo not shown) belongs -20.1%. Regarding `CCCCc1nnc(NC(=O)CN(C)S(=O)(=O)c2ccc(C)cc2)s1`, the “hERG current change (%, negative = inhibition) at 10uM” value came to 9.69%. Turning to `Cc1cc(C)cc(NC(=O)C(=O)NCCCN2CCCC2=O)c1`, the “hERG current change (%, negative = inhibition) at 10uM” value is -8.76%. Regarding `CSCCC(NC(=O)c1cccc(C)c1)C(=O)OCN1C(=O)c2ccccc2C1=O` (stereo not shown), the “hERG current change (%, negative = inhibition) at 10uM” value was -1.61%.

As to `Cc1ccc2c(c1)-c1cc(C)nn1C(c1sccc1C)N2` (stereo not shown), the “hERG current change (%, negative = inhibition) at 10uM” value is given as -2.98%. `CCCOc1ccccc1NP(=O)(Oc1ccccc1)Oc1ccccc1`: the “hERG current change (%, negative = inhibition) at 10uM” value is recorded as 15.7%. As for `CC1Cc2nc(SCC(=O)Nc3ccc4c(c3)OCO4)n(CCc3ccccc3)c(=O)c2S1` (stereo not shown), the “hERG current change (%, negative = inhibition) at 10uM” value came to 3.93%. To `Cc1ccc2oc(/N=C(\N)NC(=O)C(C)(C)C)nc2c1` belongs 4.85%; to `C=CCn1c(O)c(N=Nc2c(C)n(C)n(-c3ccccc3)c2=O)c(=O)[nH]c1=S`, -1.57%; to `CCc1nc(N2CCN(C(=O)c3ccco3)CC2)c(C#N)c2c1COC(C)(C)C2`, -52.1%. `O=C(NC1CCCCCC1)c1cc(S(=O)(=O)N2CCC3(CC2)OCCO3)ccc1F`: the “hERG current change (%, negative = inhibition) at 10uM” value is -7.15%.

`Cc1c(C(=O)N(Cc2cccs2)C2CCS(=O)(=O)C2)oc2ccccc12` (stereo not shown): the “hERG current change (%, negative = inhibition) at 10uM” value is listed as -50.2%. The same measure for `COc1ccc(C2C(C(=O)Nc3cccnc3)=C(C)Nc3nc(-c4cccs4)nn32)cc1` (stereo not shown): -39.6%; for `O=C(Cc1ccc(-n2cccc2)cc1)N1CCc2ccccc21`: 16.1%. The same measure for `CCOc1ncccc1C(=O)Nc1ccc(Cl)c(S(=O)(=O)N2CCCC2)c1`: 6.26%. With `Cc1c(NC(=O)CN2c3ccccc3CC2C)c(=O)n(-c2ccccc2)n1C` (stereo not shown), the “hERG current change (%, negative = inhibition) at 10uM” value is 5.82%. Take `CC(C)(C)/C(O)=C/c1nc2cc(Cl)ccc2oc1=O`: the “hERG current change (%, negative = inhibition) at 10uM” value was 13.5%.

With `O=C(Nc1nc(-c2ccccn2)cs1)c1ccc(S(=O)(=O)N2CCCCC2)cc1`, the “hERG current change (%, negative = inhibition) at 10uM” value is reported as -12.4%. Consider `CC(SCc1ccccc1)C(=O)Nc1ccccc1` (stereo not shown), for which the “hERG current change (%, negative = inhibition) at 10uM” value came out at 9.34%. The same measure for `CCc1ccc(NC(=O)c2ccc3c(c2)C(=O)N(CCOC)C3Nc2ccc(CC)cc2)cc1` (stereo not shown): 4.53%.

With `O=C1CCCc2cc3c(cc21)CC1(C3)Cc2cc3c(cc2C1)C(=O)CCC3`, the “hERG current change (%, negative = inhibition) at 10uM” value is 19.8%. For `COc1ccc(OCC(O)CN2CCNCC2)cc1.Cl` (stereo not shown), the “hERG current change (%, negative = inhibition) at 10uM” value was found to be 18.8%. With `CCOc1ccc(C(=O)NNC(=O)CNC(=O)c2ccc(C)s2)cc1OC`, the “hERG current change (%, negative = inhibition) at 10uM” value is recorded as 2.08%. Consider `CCCCOc1ccc(N(CC(=O)NCC2CCCO2)C(=O)CCC(=O)Nc2nccs2)cc1` (stereo not shown), for which the “hERG current change (%, negative = inhibition) at 10uM” value is recorded as -2.14%. To `COc1ccc(CNC(=O)Cc2c[nH]c3ccccc23)cc1OC` belongs 11.4%.

In the case of `COc1ccc(CC(=O)Nc2ccc(S(=O)(=O)Nc3ncccn3)cc2)cc1OC`, the “hERG current change (%, negative = inhibition) at 10uM” value is reported as -5.88%.

`Cc1noc(C)c1COC(=O)[C@@H](NC(=O)c1ccccc1)C(C)C`: the “hERG current change (%, negative = inhibition) at 10uM” value is recorded as 11.5%. In the case of `COC(=O)c1ccc(NC(=O)CN2C(=O)CSC2=O)cc1`, the “hERG current change (%, negative = inhibition) at 10uM” value came to 8.22%. Consider `COc1ccc(CNC(=O)C(=O)NCC2OCCCN2S(=O)(=O)c2cccs2)cc1` (stereo not shown), for which the “hERG current change (%, negative = inhibition) at 10uM” value was found to be 2.53%. As to `CC(C)OCCCNC(=O)Cc1ccc(Br)cc1`, the “hERG current change (%, negative = inhibition) at 10uM” value worked out at 19.8%. The same measure for `CC(C)C(NC(=O)c1ccccc1)C(=O)N1CCN(C/C=C/c2ccccc2)CC1` (stereo not shown): -41.2%.

Turning to `COc1ccc(CSCC(=O)NN=C2CCN(C)CC2)cc1`, the “hERG current change (%, negative = inhibition) at 10uM” value is 1.59%. Regarding `CCn1cc(C(=O)NC(=S)Nc2ccccc2[N+](=O)[O-])cn1`, the “hERG current change (%, negative = inhibition) at 10uM” value is -3.04%. For `CCOC(=O)C1=C(COC(=O)c2ncc(Cl)c(Cl)c2Cl)NC(=O)NC1C` (stereo not shown), the “hERG current change (%, negative = inhibition) at 10uM” value is recorded as -60.6%. On to `Cc1nn(C)c(C)c1/C=C(/C(=O)C(C)C)n1cncn1`, for which the “hERG current change (%, negative = inhibition) at 10uM” value was 13.4%. Regarding `COc1ccccc1NC(=O)CCN1CCN(Cc2ccccc2)CC1`, the “hERG current change (%, negative = inhibition) at 10uM” value is -22.3%. Take `Cc1ccccc1OCC(=O)N/N=C1\CCOc2c(C)cccc21`: the “hERG current change (%, negative = inhibition) at 10uM” value is 5.3%.

Take `CC(C)Cc1nnc(NC(=O)CCC(=O)N2CCN(Cc3ccccc3)CC2)s1`: the “hERG current change (%, negative = inhibition) at 10uM” value is listed as -11.6%. As for `O=C(O)C(F)=C(c1ccccc1)c1ccccc1`, the “hERG current change (%, negative = inhibition) at 10uM” value worked out at 13.3%. The same measure for `CCOc1ccc(NC(=O)N2CCC(NC(=O)C(Cc3ccccc3OC)NC(C)=O)CC2)cc1` (stereo not shown): 12.7%; for `COc1ccc(CCNC(=O)C/C(C)=N/NC(=O)c2ccc([N+](=O)[O-])cc2Cl)cc1OC`: 9.46%; for `CCn1c(SCc2cccc(C(=O)O)c2)nnc1-c1ccc(Cl)cc1`: 22.6%. For the molecule `O=C(NCCc1ccccn1)c1ccc(OC(F)F)cc1`, the “hERG current change (%, negative = inhibition) at 10uM” value was -24.7%. Turning to `Cc1nn2c(nc(N3CCCCC3)c3ccccc32)c1C=O`, the “hERG current change (%, negative = inhibition) at 10uM” value is given as -23.3%. Consider `CCC(=O)N1CCc2cc(S(=O)(=O)NC(C(=O)NCc3ccccc3)C(C)C)ccc21` (stereo not shown), for which the “hERG current change (%, negative = inhibition) at 10uM” value was 13.2%. To `COc1cccc(/C=N/N2CCN(c3ccccc3OC)CC2)c1` belongs -19.1%; to `O=C(c1ccc(Cl)cc1)c1oc2ccccc2c1CS(=O)(=O)c1ccccc1`, -21.5%. With `CCCC(=O)Nc1nc(-c2ccc(OC)cc2)cs1`, the “hERG current change (%, negative = inhibition) at 10uM” value worked out at 10.4%. Regarding `CC1CCCCC1NC(=O)CCS(=O)(=O)c1cc2c(cc1Cl)NC(=O)CO2` (stereo not shown), the “hERG current change (%, negative = inhibition) at 10uM” value is -30.5%. In the case of `O=S(=O)(c1cccc(-c2nnco2)c1)N1CCCC1`, the “hERG current change (%, negative = inhibition) at 10uM” value is listed as -1.71%.

The record behind these values is paper PMC4336329 (PLoS ONE, 2015).
